The full ranking holds about 33,000 sequences; the median of “E-score (-0.5 to 0.5)” is about -0.04, and the highest 2% start at about 0.36. The list shows a part of the results.
What follows are sequences tested against T1, Hmlalpha2 (UniProt P0CY09) (assay: PBM E-score (8-mer binding enrichment) (E-score (-0.5 to 0.5)); higher = stronger / more preferred TF binding; most listed sequences are background and not binding sites). Details: protein concentration: 200 nM; construct: GST-full length.
T1 sequence: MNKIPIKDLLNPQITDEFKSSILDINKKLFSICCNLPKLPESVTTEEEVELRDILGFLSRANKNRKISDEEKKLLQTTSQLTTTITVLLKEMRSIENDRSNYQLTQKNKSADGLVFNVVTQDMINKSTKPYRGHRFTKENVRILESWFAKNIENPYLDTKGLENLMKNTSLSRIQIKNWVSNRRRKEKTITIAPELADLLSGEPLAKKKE
How it was run: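 Bound GST-tagged yeast transcription factors, applied at about 100-200 nM to double-stranded universal all-10-mer Agilent arrays, were detected with fluorescent anti-GST. Scans were normalised with masliner. A modified Wilcoxon-Mann-Whitney statistic, the E-score, was assigned to each ungapped eight-base word pooled with its reverse complement by the Universal PBM Analysis Suite.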

**Q.** With CCAGGTTC as the sequence, how does the “PBM E-score” value read?
**A.** -0.111

**Q.** Which “PBM E-score” value does the source give for AATCCTAT here?
**A.** -0.0522

**Q.** GGAGACAA was tested. Which “PBM E-score” value did it give?
**A.** -0.0427

**Q.** How did the “PBM E-score” value turn out when CCCAATCC was run?
**A.** -0.281

**Q.** For CCATCAGC, which “PBM E-score” value is on record?
**A.** -0.231

**Q.** CTTTCCTC was tested. Which “PBM E-score” value did it give?
**A.** -0.0674

**Q.** Which “PBM E-score” value does the source give for GCGACCCA here?
**A.** -0.292

**Q.** With GGCAGGCC as the sequence, how does the “PBM E-score” value read?
**A.** -0.245

**Q.** With CCCCCCGC as the sequence, how does the “PBM E-score” value read?
**A.** -0.348

**Q.** With GCTGTGCA as the sequence, how does the “PBM E-score” value read?
**A.** 0.0482

**Q.** CAAAGGTG was tested. Which “PBM E-score” value did it give?
**A.** -0.144

**Q.** For GGCCAGCA, which “PBM E-score” value is on record?
**A.** -0.189

**Q.** For ATGCAGCG, which “PBM E-score” value is on record?
**A.** -0.184

**Q.** Which “PBM E-score” value does the source give for AAAACGAC here?
**A.** 0.165

**Q.** How did the “PBM E-score” value turn out when AGAATAGG was run?
**A.** -0.108

**Q.** How did the “PBM E-score” value turn out when AGAGGATA was run?
**A.** -0.00713

**Q.** With ATGATCCG as the sequence, how does the “PBM E-score” value read?
**A.** -0.0129

**Q.** How did the “PBM E-score” value turn out when AGTGGTAC was run?
**A.** -0.0807

**Q.** GTTCCGGA was tested. Which “PBM E-score” value did it give?
**A.** 0.0592

**Q.** For ACGTTCCG, which “PBM E-score” value is on record?
**A.** -0.0636

**Q.** With CCTGCCAG as the sequence, how does the “PBM E-score” value read?
**A.** -0.0668

**Q.** ATCTAATA was tested. Which “PBM E-score” value did it give?
**A.** 0.198

**Q.** CAGCTATC was tested. Which “PBM E-score” value did it give?
**A.** -0.129

**Q.** CCCCATCA was tested. Which “PBM E-score” value did it give?
**A.** -0.0432

**Q.** For ACTAGACA, which “PBM E-score” value is on record?
**A.** 0.148

**Q.** Which “PBM E-score” value does the source give for CGTAGATC here?
**A.** 0.201

**Q.** With AGCTTCGC as the sequence, how does the “PBM E-score” value read?
**A.** -0.101

**Q.** Which “PBM E-score” value does the source give for TATTGTGA here?
**A.** 0.111

**Q.** With CGTCCTAG as the sequence, how does the “PBM E-score” value read?
**A.** 0.0384

**Q.** Which “PBM E-score” value does the source give for AAAGACTA here?
**A.** 0.025

**Q.** GCGGGAGC was tested. Which “PBM E-score” value did it give?
**A.** -0.34

**Q.** How did the “PBM E-score” value turn out when AAGCCGGT was run?
**A.** -0.0642

**Q.** CAAGGGAG was tested. Which “PBM E-score” value did it give?
**A.** -0.0374

**Q.** Which “PBM E-score” value does the source give for ATCCCCAT here?
**A.** -0.084

**Q.** With CCGTACGC as the sequence, how does the “PBM E-score” value read?
**A.** -0.0838

**Q.** Which “PBM E-score” value does the source give for ATGTATGC here?
**A.** 0.358

**Q.** Which “PBM E-score” value does the source give for CCAATTGG here?
**A.** -0.127

**Q.** Which “PBM E-score” value does the source give for CCGTTTTA here?
**A.** 0.194

**Q.** How did the “PBM E-score” value turn out when GCTGCTTA was run?
**A.** -0.0322

**Q.** Which “PBM E-score” value does the source give for GACTAACC here?
**A.** 0.0233

**Q.** For ACATAGTG, which “PBM E-score” value is on record?
**A.** 0.2

**Q.** With ACGAAACG as the sequence, how does the “PBM E-score” value read?
**A.** 0.0527

**Q.** GGTGGATA was tested. Which “PBM E-score” value did it give?
**A.** -0.237

**Q.** With CACTCAAC as the sequence, how does the “PBM E-score” value read?
**A.** 0.0747

**Q.** With TAGATAAA as the sequence, how does the “PBM E-score” value read?
**A.** 0.0875

**Q.** For CGCTCGAA, which “PBM E-score” value is on record?
**A.** -0.054

**Q.** ACAAACCG was tested. Which “PBM E-score” value did it give?
**A.** 0.039

**Q.** With GACAAGTA as the sequence, how does the “PBM E-score” value read?
**A.** 0.071

**Q.** With AGAGCTTC as the sequence, how does the “PBM E-score” value read?
**A.** -0.179

**Q.** With AAACCACA as the sequence, how does the “PBM E-score” value read?
**A.** 0.142

**Q.** With AGGTCCTG as the sequence, how does the “PBM E-score” value read?
**A.** -0.272

**Q.** For ATCTGAAA, which “PBM E-score” value is on record?
**A.** 0.0558

**Q.** For AGACGTCC, which “PBM E-score” value is on record?
**A.** -0.0269

**Q.** For CCCTGTAG, which “PBM E-score” value is on record?
**A.** 0.0278

**Q.** Which “PBM E-score” value does the source give for CACCGGGG here?
**A.** -0.326

**Q.** For GATACTGC, which “PBM E-score” value is on record?
**A.** 0.016

**Q.** ATTCACTG was tested. Which “PBM E-score” value did it give?
**A.** 0.0199

**Q.** AGCGTGCA was tested. Which “PBM E-score” value did it give?
**A.** 0.11

**Q.** CTAATGGC was tested. Which “PBM E-score” value did it give?
**A.** -0.144

**Q.** How did the “PBM E-score” value turn out when CGGTGGGA was run?
**A.** -0.316

**Q.** Which “PBM E-score” value does the source give for CCCACAAC here?
**A.** -0.152

**Q.** With ATAGGCCA as the sequence, how does the “PBM E-score” value read?
**A.** -0.138

**Q.** How did the “PBM E-score” value turn out when AAAACTCT was run?
**A.** 0.0694

**Q.** With CACTCGCA as the sequence, how does the “PBM E-score” value read?
**A.** 0.0187

**Q.** With AATCAGTC as the sequence, how does the “PBM E-score” value read?
**A.** 0.0535

**Q.** For ACTATCAG, which “PBM E-score” value is on record?
**A.** -0.0387

**Q.** With CAGACCGC as the sequence, how does the “PBM E-score” value read?
**A.** -0.149

**Q.** With CCAAAAAC as the sequence, how does the “PBM E-score” value read?
**A.** 0.086

**Q.** How did the “PBM E-score” value turn out when AGATCTCG was run?
**A.** -0.182

**Q.** Which “PBM E-score” value does the source give for CACATTCA here?
**A.** 0.00638

**Q.** ATGGTTTC was tested. Which “PBM E-score” value did it give?
**A.** 0.0792

**Q.** How did the “PBM E-score” value turn out when CAATTGGA was run?
**A.** -0.199

**Q.** With ACCGGGCG as the sequence, how does the “PBM E-score” value read?
**A.** -0.422

**Q.** AGTACTGA was tested. Which “PBM E-score” value did it give?
**A.** 0.00967

**Q.** How did the “PBM E-score” value turn out when ATGCTAGC was run?
**A.** 0.139

**Q.** For CTTATAGA, which “PBM E-score” value is on record?
**A.** -0.154

**Q.** GACAATCC was tested. Which “PBM E-score” value did it give?
**A.** -0.202

**Q.** With TAAGTCAA as the sequence, how does the “PBM E-score” value read?
**A.** 0.0906

**Q.** With AAGCAAGA as the sequence, how does the “PBM E-score” value read?
**A.** -0.0444

**Q.** ACCATTGA was tested. Which “PBM E-score” value did it give?
**A.** 0.0496

**Q.** TCGACCGA was tested. Which “PBM E-score” value did it give?
**A.** -0.0492

**Q.** GCCTACGA was tested. Which “PBM E-score” value did it give?
**A.** -0.0741

**Q.** For ACCACGCC, which “PBM E-score” value is on record?
**A.** -0.2

**Q.** For GTATCGTA, which “PBM E-score” value is on record?
**A.** 0.137

**Q.** With CAACACGA as the sequence, how does the “PBM E-score” value read?
**A.** 0.419

**Q.** With CGAATAAG as the sequence, how does the “PBM E-score” value read?
**A.** -0.28

**Q.** For CAAGTCCA, which “PBM E-score” value is on record?
**A.** -0.226

**Q.** With AACGCAAG as the sequence, how does the “PBM E-score” value read?
**A.** 0.154

**Q.** CGGCCCGA was tested. Which “PBM E-score” value did it give?
**A.** -0.212

**Q.** With CAACCCCC as the sequence, how does the “PBM E-score” value read?
**A.** -0.119

**Q.** CAACGGGA was tested. Which “PBM E-score” value did it give?
**A.** -0.118

**Q.** With ACCGCTTG as the sequence, how does the “PBM E-score” value read?
**A.** -0.0491

**Q.** AGATTTCC was tested. Which “PBM E-score” value did it give?
**A.** -0.111

**Q.** For ACGTTCTA, which “PBM E-score” value is on record?
**A.** 0.135

**Q.** How did the “PBM E-score” value turn out when AAGGCAAA was run?
**A.** 0.00184

**Q.** With CGACATCC as the sequence, how does the “PBM E-score” value read?
**A.** -0.0883

**Q.** How did the “PBM E-score” value turn out when GCCGACTA was run?
**A.** 0.0147

**Q.** CTGGTCTA was tested. Which “PBM E-score” value did it give?
**A.** -0.217

**Q.** With AGTAGAAT as the sequence, how does the “PBM E-score” value read?
**A.** 0.165

**Q.** Which “PBM E-score” value does the source give for TCGCGAAA here?
**A.** -0.0803

**Q.** Which “PBM E-score” value does the source give for TACGAGAA here?
**A.** 0.0859

**Q.** With CCGCATCG as the sequence, how does the “PBM E-score” value read?
**A.** -0.263

**Q.** GCTTTTAA was tested. Which “PBM E-score” value did it give?
**A.** -0.0275

**Q.** Which “PBM E-score” value does the source give for CTAAAATC here?
**A.** -0.0305

**Q.** With TGAAATAA as the sequence, how does the “PBM E-score” value read?
**A.** 0.192

**Q.** With CGCGTGAC as the sequence, how does the “PBM E-score” value read?
**A.** 0.182

**Q.** With AACAGGAG as the sequence, how does the “PBM E-score” value read?
**A.** 0.00534

**Q.** How did the “PBM E-score” value turn out when GTGGTACA was run?
**A.** 0.174

**Q.** For GCCTCCAA, which “PBM E-score” value is on record?
**A.** -0.111

From the supplement of paper PMC3334620
